Values marked as one replicate rest on one cluster of the flow cell; about a third of the high ones do not repeat.
test system: ATP; experiment: switch fluorescence ratio, 500 uM ATP over buffer (Cy3 cluster intensity, sum of 5 cycles each) (fold (ratio)); higher = stronger signal-on switching upon ATP binding; sequences stand for … in TCGTCGGCAGCGTCAGATGTGTATAAGAGACAGTTTTTTTTTTTTTTTTTTTTTTTTT…TC; settings: aptamer strand: ATP DNA aptamer (quencher-CACCTGGGGGAGTATTGCGGAGGAAGG + anchor), 100 nM annealed; ATP concentration: 500 uM; one replicate
Summary of the method: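 Cy3-labelled switching-strand clusters on a modified Illumina MiSeq flow-cell were annealed to 100 nM quencher-labelled ATP aptamer, imaged in selection buffer, then imaged after 15 min with 500 uM ATP at 22 °C. Five buffer/ATP cycles ran, with NaOH stripping and re-annealing between them. The fluorescence ratio is summed target-cycle over summed buffer-cycle Cy3 intensity per cluster, averaged per switch-domain sequence. Clusters outside 100-1000 RFU were excluded.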
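Also: ATP exposure 15 min at 22 °C before imaging.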

Q: How did the switch fluorescence ratio turn out when CTAGTCGGAT was run?
A: 1.05

Q: For CTAGTGCTTC, which switch fluorescence ratio is on record?
A: 0.984

Q: How did the switch fluorescence ratio turn out when CTAGTGTTCT was run?
A: 0.961

Q: For CTAGTTAATT, which switch fluorescence ratio is on record?
A: 0.961

Q: With CTAGTTCTGG as the sequence, how does the switch fluorescence ratio read?
A: 0.974

Q: Which switch fluorescence ratio does the source give for CTAGTTTACT here?
A: 1.04

Q: With CTATAATTTG as the sequence, how does the switch fluorescence ratio read?
A: 1.01

Q: With CTATACGAT as the sequence, how does the switch fluorescence ratio read?
A: 1.01

Q: CTATAGGAGG was tested. Which switch fluorescence ratio did it give?
A: 0.992

Q: How did the switch fluorescence ratio turn out when CTATAGGTGC was run?
A: 1.18

Q: How did the switch fluorescence ratio turn out when CTATAGTCTA was run?
A: 1.03

Q: With CTATATATTG as the sequence, how does the switch fluorescence ratio read?
A: 0.975

Q: With CTATATTGAA as the sequence, how does the switch fluorescence ratio read?
A: 1.05

Q: For CTATATTTAT, which switch fluorescence ratio is on record?
A: 1.01

Q: For CTATCAAGGG, which switch fluorescence ratio is on record?
A: 0.954

Q: With CTATCACTGT as the sequence, how does the switch fluorescence ratio read?
A: 0.993

Q: Which switch fluorescence ratio does the source give for CTATCATTC here?
A: 1.01

Q: CTATCGCTGT was tested. Which switch fluorescence ratio did it give?
A: 1.15

Q: For CTATCTACAA, which switch fluorescence ratio is on record?
A: 1.07

Q: How did the switch fluorescence ratio turn out when CTATCTAGAT was run?
A: 1.01

Q: Which switch fluorescence ratio does the source give for CTATGCGAGG here?
A: 0.983

Q: With CTATGCGTAG as the sequence, how does the switch fluorescence ratio read?
A: 1.05

Q: With CTATGCTGA as the sequence, how does the switch fluorescence ratio read?
A: 1

Q: CTATGCTGAA was tested. Which switch fluorescence ratio did it give?
A: 0.947

Q: How did the switch fluorescence ratio turn out when CTATGCTGGG was run?
A: 0.945

Q: For CTATGGTTAT, which switch fluorescence ratio is on record?
A: 0.989

Q: For CTATGTAAGA, which switch fluorescence ratio is on record?
A: 0.987

Q: Which switch fluorescence ratio does the source give for CTATTAAGCT here?
A: 1.03

Q: Which switch fluorescence ratio does the source give for CTATTAGTGC here?
A: 1.02

Q: With CTATTCCGTC as the sequence, how does the switch fluorescence ratio read?
A: 1.03

Q: CTATTGTACT was tested. Which switch fluorescence ratio did it give?
A: 1.02

Q: For CTATTTCGGA, which switch fluorescence ratio is on record?
A: 0.988

Q: For CTATTTCTT, which switch fluorescence ratio is on record?
A: 1.04

Q: With CTCAAACCTT as the sequence, how does the switch fluorescence ratio read?
A: 2.42

Q: How did the switch fluorescence ratio turn out when CTCAAAGAT was run?
A: 0.967

Q: CTCAACGCGT was tested. Which switch fluorescence ratio did it give?
A: 1.04

Q: For CTCAAGGGAC, which switch fluorescence ratio is on record?
A: 2.16

Q: How did the switch fluorescence ratio turn out when CTCAATGTGA was run?
A: 1.02

Q: CTCACACGGA was tested. Which switch fluorescence ratio did it give?
A: 1.04

Q: With CTCACACTCC as the sequence, how does the switch fluorescence ratio read?
A: 1.7

Q: How did the switch fluorescence ratio turn out when CTCACCGGTC was run?
A: 1.01

Q: For CTCACGGCAC, which switch fluorescence ratio is on record?
A: 2.02

Q: With CTCACGGTAA as the sequence, how does the switch fluorescence ratio read?
A: 1.3

Q: CTCACTAATG was tested. Which switch fluorescence ratio did it give?
A: 1.07

Q: How did the switch fluorescence ratio turn out when CTCACTGCAG was run?
A: 0.987

Q: With CTCAGATA as the sequence, how does the switch fluorescence ratio read?
A: 0.987

Q: Which switch fluorescence ratio does the source give for CTCAGCAATT here?
A: 3.01

Q: How did the switch fluorescence ratio turn out when CTCAGCAGAT was run?
A: 2.83

Q: For CTCAGGAAAG, which switch fluorescence ratio is on record?
A: 0.982

Q: CTCAGGGCCT was tested. Which switch fluorescence ratio did it give?
A: 1.02

Q: For CTCAGGGGCC, which switch fluorescence ratio is on record?
A: 1.03

Q: With CTCATAAGTA as the sequence, how does the switch fluorescence ratio read?
A: 1.01

Q: Which switch fluorescence ratio does the source give for CTCATAATCA here?
A: 1.03

Q: CTCATACAGG was tested. Which switch fluorescence ratio did it give?
A: 1.5

Q: How did the switch fluorescence ratio turn out when CTCATCGTGA was run?
A: 1.34

Q: For CTCATTTAAG, which switch fluorescence ratio is on record?
A: 0.96

Q: CTCCAACCAG was tested. Which switch fluorescence ratio did it give?
A: 1.39

Q: CTCCAAGTAG was tested. Which switch fluorescence ratio did it give?
A: 1.77

Q: With CTCCAAGTGG as the sequence, how does the switch fluorescence ratio read?
A: 1.01

Q: How did the switch fluorescence ratio turn out when CTCCACAGGC was run?
A: 1.75

Q: How did the switch fluorescence ratio turn out when CTCCAGCACG was run?
A: 2.85

Q: Which switch fluorescence ratio does the source give for CTCCATGAAT here?
A: 1.04

Q: For CTCCCAGTCG, which switch fluorescence ratio is on record?
A: 1.33

Q: How did the switch fluorescence ratio turn out when CTCCCCAGTA was run?
A: 1.04

Q: For CTCCCCCATA, which switch fluorescence ratio is on record?
A: 2.22

Q: For CTCCCGTCGT, which switch fluorescence ratio is on record?
A: 1.09

Q: How did the switch fluorescence ratio turn out when CTCCCTAGGG was run?
A: 1.2

Q: For CTCCCTTGAT, which switch fluorescence ratio is on record?
A: 1.04

Q: Which switch fluorescence ratio does the source give for CTCCGACTGT here?
A: 3.39

Q: For CTCCGGCTGT, which switch fluorescence ratio is on record?
A: 4.91

Q: For CTCCGTATTC, which switch fluorescence ratio is on record?
A: 1.67

Q: Which switch fluorescence ratio does the source give for CTCCGTCGTG here?
A: 1.34

Q: For CTCGAAGTGC, which switch fluorescence ratio is on record?
A: 2.03

Q: How did the switch fluorescence ratio turn out when CTCGACGACT was run?
A: 1.03

Q: Which switch fluorescence ratio does the source give for CTCGATGGTT here?
A: 1

Q: Which switch fluorescence ratio does the source give for CTCGATTTT here?
A: 0.983

Q: For CTCGCCGGAT, which switch fluorescence ratio is on record?
A: 0.975

Q: CTCGGAAAGA was tested. Which switch fluorescence ratio did it give?
A: 0.987

Q: With CTCGGACGTA as the sequence, how does the switch fluorescence ratio read?
A: 0.929

Q: Which switch fluorescence ratio does the source give for CTCGGCGTTG here?
A: 0.995

Q: Which switch fluorescence ratio does the source give for CTCGGCTTTG here?
A: 0.991

Q: With CTCGGGTAAC as the sequence, how does the switch fluorescence ratio read?
A: 1.18

Q: With CTCGGGTCT as the sequence, how does the switch fluorescence ratio read?
A: 1.01

Q: How did the switch fluorescence ratio turn out when CTCGGTGCAC was run?
A: 1.05

Q: CTCGTAATGA was tested. Which switch fluorescence ratio did it give?
A: 1.52

Q: CTCGTCCGGA was tested. Which switch fluorescence ratio did it give?
A: 1.21

Q: Which switch fluorescence ratio does the source give for CTCGTCTCCG here?
A: 0.989

Q: With CTCGTGAGCA as the sequence, how does the switch fluorescence ratio read?
A: 1.05

Q: For CTCGTTATTA, which switch fluorescence ratio is on record?
A: 0.983

Q: CTCGTTCAGC was tested. Which switch fluorescence ratio did it give?
A: 1.02

Q: With CTCGTTGGGA as the sequence, how does the switch fluorescence ratio read?
A: 0.947

Q: Which switch fluorescence ratio does the source give for CTCGTTGTAT here?
A: 1.02

Q: Which switch fluorescence ratio does the source give for CTCTACCGTT here?
A: 1

Q: How did the switch fluorescence ratio turn out when CTCTACTTGG was run?
A: 1.05

Q: How did the switch fluorescence ratio turn out when CTCTAGATGT was run?
A: 1.05

Q: For CTCTAGGCAG, which switch fluorescence ratio is on record?
A: 1.09

Q: CTCTATAGCA was tested. Which switch fluorescence ratio did it give?
A: 1.1

Q: CTCTATGGGC was tested. Which switch fluorescence ratio did it give?
A: 1.18

Q: Which switch fluorescence ratio does the source give for CTCTCGGAAA here?
A: 1.01

Q: CTCTCTCGTC was tested. Which switch fluorescence ratio did it give?
A: 1.07

Reference: the supplement of paper PMC10126150
